{
  "source": "paper PMC5700166",
  "note": "Only a part is listed here, and it is no random draw. The list includes weakly bound sequences.",
  "data": [
    {"target": "T1, GST-Dm-Relish (UniProt Q94527)", "T1 sequence": "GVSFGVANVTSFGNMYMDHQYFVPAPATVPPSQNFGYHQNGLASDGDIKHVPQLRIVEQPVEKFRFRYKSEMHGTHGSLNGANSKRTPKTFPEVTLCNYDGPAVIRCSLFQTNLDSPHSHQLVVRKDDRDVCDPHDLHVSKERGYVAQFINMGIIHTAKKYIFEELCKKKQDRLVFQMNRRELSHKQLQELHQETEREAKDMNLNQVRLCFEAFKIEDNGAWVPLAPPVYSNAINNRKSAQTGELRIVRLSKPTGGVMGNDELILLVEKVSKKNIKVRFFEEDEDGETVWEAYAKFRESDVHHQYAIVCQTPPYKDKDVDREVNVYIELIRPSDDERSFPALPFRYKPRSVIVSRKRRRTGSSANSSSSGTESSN", "assay": "protein-binding microarray (PBM)", "details": "PBM: ~300 nM protein, 6 mM HEPES pH 7.8, 80 mM KCl, 0.5 mM EDTA, 0.5 mM EGTA, 6% glycerol, 35 ng/ul poly-dIdC, 1% milk, 1 h, room temperature; Ap Aiptasia and Nv Nematostella (sea anemones) / Co Capsaspora / Aq Amphimedon (sponge) / Dm Drosophila / Hu human; RHD is the Rel homology domain; high values mean tight binding; most listed sequences are background and not binding sites; double strand, one strand shown", "units": {"binding signal": "z-score"}, "values": [
      {"sequence": "CCGATTAACATCACCCCGTCCCCTGATGTTAATCGGGTCTTGATTCGCTTGACGCTGCTG", "binding signal": 2.65},
      {"sequence": "CCGATTAACATCAGATTTCTCCCTGATGTTAATCGGGTCTTGATTCGCTTGACGCTGCTG", "binding signal": 0.504},
      {"sequence": "CCGATTAACATCATATTTTCCCATGATGTTAATCGGGTCTTGATTCGCTTGACGCTGCTG", "binding signal": 0.894},
      {"sequence": "CCGATTAACATCAGGAATATCCCTGATGTTAATCGGGTCTTGATTCGCTTGACGCTGCTG", "binding signal": 2.78},
      {"sequence": "CCGATTAACATCAGGAAAGCACCTGATGTTAATCGGGTCTTGATTCGCTTGACGCTGCTG", "binding signal": 6.13},
      {"sequence": "CCGATTAACATCAAGCACCCCCTTGATGTTAATCGGGTCTTGATTCGCTTGACGCTGCTG", "binding signal": 2.85},
      {"sequence": "CCGATTAACATCAGATATTTCCCTGATGTTAATCGGGTCTTGATTCGCTTGACGCTGCTG", "binding signal": 2.31},
      {"sequence": "CCGATTAACATCACGGTGGGAAATGATGTTAATCGGGTCTTGATTCGCTTGACGCTGCTG", "binding signal": 0.971},
      {"sequence": "CCGATTAACATCAATTCCCACCCTGATGTTAATCGGGTCTTGATTCGCTTGACGCTGCTG", "binding signal": 2.33},
      {"sequence": "CCGATTAACATCAGGGACCTCCCTGATGTTAATCGGGTCTTGATTCGCTTGACGCTGCTG", "binding signal": 6.16},
      {"sequence": "CCGATTAACATCAATCTTTTCCCTGATGTTAATCGGGTCTTGATTCGCTTGACGCTGCTG", "binding signal": 0.957},
      {"sequence": "CCGATTAACATCAGGGCCCCCCCTGATGTTAATCGGGTCTTGATTCGCTTGACGCTGCTG", "binding signal": 6.49},
      {"sequence": "CCGATTAACATCAGGGGGAGAGATGATGTTAATCGGGTCTTGATTCGCTTGACGCTGCTG", "binding signal": 1.45},
      {"sequence": "CCGATTAACATCAGGGGATCCCATGATGTTAATCGGGTCTTGATTCGCTTGACGCTGCTG", "binding signal": 10},
      {"sequence": "CCGATTAACATCAAGACTCCCCCTGATGTTAATCGGGTCTTGATTCGCTTGACGCTGCTG", "binding signal": 4.5},
      {"sequence": "CCGATTAACATCAGGGAAAGGGATGATGTTAATCGGGTCTTGATTCGCTTGACGCTGCTG", "binding signal": 0.0156},
      {"sequence": "CCGATTAACATCAGGGGGAATACTGATGTTAATCGGGTCTTGATTCGCTTGACGCTGCTG", "binding signal": 7.69},
      {"sequence": "CCGATTAACATCAATATAGTCCCTGATGTTAATCGGGTCTTGATTCGCTTGACGCTGCTG", "binding signal": 1.16},
      {"sequence": "CCGATTAACATCAGGAACCCCCATGATGTTAATCGGGTCTTGATTCGCTTGACGCTGCTG", "binding signal": 9.25},
      {"sequence": "CCGATTAACATCAGGGGATGCACTGATGTTAATCGGGTCTTGATTCGCTTGACGCTGCTG", "binding signal": 9.57},
      {"sequence": "CCGATTAACATCACGGGCTTCCCTGATGTTAATCGGGTCTTGATTCGCTTGACGCTGCTG", "binding signal": 7.65},
      {"sequence": "CCGATTAACATCAGAAATTTACCTGATGTTAATCGGGTCTTGATTCGCTTGACGCTGCTG", "binding signal": 2.77},
      {"sequence": "CCGATTAACATCAAGTATTCCCATGATGTTAATCGGGTCTTGATTCGCTTGACGCTGCTG", "binding signal": 2},
      {"sequence": "CCGATTAACATCAGGCAACTCCCTGATGTTAATCGGGTCTTGATTCGCTTGACGCTGCTG", "binding signal": 0.37},
      {"sequence": "CCGATTAACATCACTTTTTTCCCTGATGTTAATCGGGTCTTGATTCGCTTGACGCTGCTG", "binding signal": 2.28},
      {"sequence": "CCGATTAACATCACGGAAATACCTGATGTTAATCGGGTCTTGATTCGCTTGACGCTGCTG", "binding signal": 2.56},
      {"sequence": "CCGATTAACATCAGAGTTTCCCATGATGTTAATCGGGTCTTGATTCGCTTGACGCTGCTG", "binding signal": 0.859},
      {"sequence": "CCGATTAACATCAGGAGGTTCCCTGATGTTAATCGGGTCTTGATTCGCTTGACGCTGCTG", "binding signal": 2.47},
      {"sequence": "CCGATTAACATCAGGAGAGTACCTGATGTTAATCGGGTCTTGATTCGCTTGACGCTGCTG", "binding signal": 2.54},
      {"sequence": "CCGATTAACATCAAAAGCCCCCATGATGTTAATCGGGTCTTGATTCGCTTGACGCTGCTG", "binding signal": 6.91},
      {"sequence": "CCGATTAACATCAGGCCTTCCCCTGATGTTAATCGGGTCTTGATTCGCTTGACGCTGCTG", "binding signal": 9.6},
      {"sequence": "CCGATTAACATCAAGGGGGAGATTGATGTTAATCGGGTCTTGATTCGCTTGACGCTGCTG", "binding signal": 3.01},
      {"sequence": "CCGATTAACATCAGGGGTCAGTATGATGTTAATCGGGTCTTGATTCGCTTGACGCTGCTG", "binding signal": 0.646},
      {"sequence": "CCGATTAACATCATGGGAAGGTTTGATGTTAATCGGGTCTTGATTCGCTTGACGCTGCTG", "binding signal": 0.64},
      {"sequence": "CCGATTAACATCAAGGGGGTTTATGATGTTAATCGGGTCTTGATTCGCTTGACGCTGCTG", "binding signal": 8.75},
      {"sequence": "CCGATTAACATCAGGACTTGCCCTGATGTTAATCGGGTCTTGATTCGCTTGACGCTGCTG", "binding signal": -0.096},
      {"sequence": "CCGATTAACATCAGGGGAGTGGATGATGTTAATCGGGTCTTGATTCGCTTGACGCTGCTG", "binding signal": 0.758},
      {"sequence": "CCGATTAACATCACCCTCGAGGGTGATGTTAATCGGGTCTTGATTCGCTTGACGCTGCTG", "binding signal": 1.08},
      {"sequence": "CCGATTAACATCAGACATTCCCATGATGTTAATCGGGTCTTGATTCGCTTGACGCTGCTG", "binding signal": 0.989},
      {"sequence": "CCGATTAACATCAAGTGGGAAAATGATGTTAATCGGGTCTTGATTCGCTTGACGCTGCTG", "binding signal": 0.942}
    ]}
  ]
}
